In ChEMBL document CHEMBL5606458, “ASAP - ZIKV NS2B-NS3 protease fluorescence single point” (2024) one finds inhibition data, which are given here for 26 compounds.

Screen size: about 2,700 compounds; about 160 (5.9%) showed an effect of 50% or more. The list shows a part of the results.

This assay concerns the target Nonstructural protein 3 (Zika virus) (UniProt A0A024AXB9).
Setting [1] is: PRVABC59, Concentration 15.0 uM, Number of replicates 1.0.
The mark [2] stands for this setting: PRVABC59, Concentration 10.0 uM, Number of replicates 1.0.
Setting [3] is: PRVABC59, Concentration 50.0 uM, Number of replicates 1.0.

Chain of UniProt A0A024AXB9 (A0A024AXB9 as listed by the source): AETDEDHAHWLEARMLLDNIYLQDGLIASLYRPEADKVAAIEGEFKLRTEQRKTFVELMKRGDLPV

For `Cc1cc(CO)c2cccc(Cc3cccc(NC(=O)Cc4nnc(C)[nH]4)c3)c2n1`, the inhibition (usually the change of the read-out against control, counted positive when it falls) (PRVABC59, Concentration 49.95 uM, Number of replicates 2.0, Standard deviation 1.129082461470468 %) amounted to 2.52% and the inhibition (PRVABC59, Concentration 99.9 uM, Number of replicates 2.0, Standard deviation 0.15054449678345644 %) was 12.9%.

Consider `Cc1cc(CO)c2cccc(NCc3ccc(C)o3)c2n1`, for which the inhibition (PRVABC59, Concentration 49.95 uM, Number of replicates 2.0, Standard deviation 1.0644564227188946 %) was -0.678% and the inhibition (PRVABC59, Concentration 99.9 uM, Number of replicates 2.0, Standard deviation 1.1350838565970554 %) came to 0.478%.

Consider `O=C(Nc1ccc(Br)c2ccccc12)c1cc(Cl)ccc1NS(=O)(=O)c1ccc(Oc2ccccc2Cl)cc1`, for which the inhibition under setting [1] amounted to 21.9%.

In the case of `c1ccc2[nH]c(CC3CCN(c4ncnc5[nH]ccc45)CC3)nc2c1`, the inhibition was -3.7% (PRVABC59, Concentration 49.5 uM, Number of replicates 2.0, Standard deviation 0.8729323765409018 %); 1.52% (PRVABC59, Concentration 99.01 uM, Number of replicates 2.0, Standard deviation 2.6991147561762485 %); 7.18% (PRVABC59, Concentration 198.0 uM, Number of replicates 2.0, Standard deviation 4.214592802372255 %).

Take `O=C(c1cc(Cl)ccc1NS(=O)(=O)c1ccc(Oc2ccccc2Cl)cc1)N1CCC(N2CCCC2=O)CC1`: under setting [1], the inhibition was -2.59%.

Regarding `COc1cc(Cc2cc(F)c3c(c2)CC(=O)N3)nc(N2CCNCC2)n1`, the inhibition by setting is: (PRVABC59, Concentration 49.5 uM, Number of replicates 2.0, Standard deviation 12.783278069366851 %) 0.305%; (PRVABC59, Concentration 99.01 uM, Number of replicates 2.0, Standard deviation 2.2087504404602174 %) 14.9%; (PRVABC59, Concentration 198.0 uM, Number of replicates 2.0, Standard deviation 3.2930472392345242 %) 25.3%.

As to `COc1ccccc1N1CCN(C(=O)c2cccc(Cc3cccc4c(CO)cc(C)nc34)c2)CC1`, the inhibition (PRVABC59, Concentration 49.95 uM, Number of replicates 2.0, Standard deviation 0.1677906500193262 %) is -4.17% and the inhibition (PRVABC59, Concentration 99.9 uM, Number of replicates 2.0, Standard deviation 0.6187282959007806 %) is 1.87%.

As for `Cc1cccc(OC2CN(C(=O)c3cc(Cl)ccc3NS(=O)(=O)c3ccc(Oc4ccccc4Cl)cc3)C2)c1`, under setting [1], the inhibition is 0.929%.

In the case of `CCCOc1ccc([C@H](C)NC(=O)C2CCN(c3ccc(C=O)cc3)CC2)cc1`, the inhibition under setting [2] turned out to be 6.77%.

For `COc1cccc2c1OC[C@@H](NC(=O)C1CCN(c3ccc(C=O)cc3)CC1)C2`, under setting [3], the inhibition stood at 5.34%.

As for `NCC1(c2ccccn2)CCCC1`, where the note is “PRVABC59, Concentration 99.5 uM, Number of replicates 2.0, Standard deviation 2.993295143702377 %”, the inhibition is -6.69%.

Regarding `N=C(N)NC[C@@H]1CCCN(C(=O)[C@H](Cc2ccc(CN)cc2)NC(=O)c2ccccc2)C1`, the inhibition was 2.68% (PRVABC59, Concentration 49.5 uM, Number of replicates 2.0, Standard deviation 0.6960698702606968 %); 12.8% (PRVABC59, Concentration 99.01 uM, Number of replicates 2.0, Standard deviation 1.1872902095434084 %); 26.8% (PRVABC59, Concentration 198.0 uM, Number of replicates 2.0, Standard deviation 0.3804343133987339 %).

In the case of `Cc1cc(CO)c2cccc(Cc3cccc(NC(=O)[C@@H](N)c4ccsc4)c3)c2n1`, the inhibition (PRVABC59, Concentration 49.95 uM, Number of replicates 2.0, Standard deviation 2.2932916237764616 %) is 14.9% and the inhibition (PRVABC59, Concentration 99.9 uM, Number of replicates 2.0, Standard deviation 2.1427484756921573 %) turned out to be 24.4%.

On to `Cc1cc(CO)c2cccc(Cc3ccccc3C(=O)N[C@@H](CCC(N)=O)C(=O)O)c2n1`, for which the inhibition is, setting by setting: (PRVABC59, Concentration 49.95 uM, Number of replicates 2.0, Standard deviation 1.0696657731948411 %) -4.71%; (PRVABC59, Concentration 99.9 uM, Number of replicates 2.0, Standard deviation 0.7655451252044032 %) 0.649%.

As for `CCn1nnc(CNC(=O)[C@]2(c3ccc(F)cc3)CCCNC2)n1`, the inhibition is -3.12% (PRVABC59, Concentration 49.5 uM, Number of replicates 2.0, Standard deviation 1.307616764643706 %); -2.65% (PRVABC59, Concentration 99.01 uM, Number of replicates 2.0, Standard deviation 2.1661130869263534 %); -2.33% (PRVABC59, Concentration 198.0 uM, Number of replicates 2.0, Standard deviation 0.015898128433097316 %).

Take `N#Cc1ccc(NC(=O)C2CCN(c3ccc(C=O)cc3)CC2)c(I)c1`: the inhibition under setting [3] stood at 24.2%.

On to `COc1ncc(NC(=O)c2cc(Cl)ccc2NS(=O)(=O)c2ccc(Oc3ccccc3Cl)cc2)cc1Br`, for which, under setting [1], the inhibition was 67.3%.

As for `O=C(Nc1cccc(OC(F)(F)F)c1)c1cc(Cl)ccc1NS(=O)(=O)c1ccc(Oc2ccccc2Cl)cc1`, under setting [1], the inhibition is 40.8%.

Turning to `O[C@]1(C(F)(F)F)CC[C@H](CNCc2nnc3ccccn23)CC1`, the inhibition is, setting by setting: (PRVABC59, Concentration 49.5 uM, Number of replicates 2.0, Standard deviation 1.3334657429368013 %) -1.13%; (PRVABC59, Concentration 99.01 uM, Number of replicates 2.0, Standard deviation 1.3822305106743 %) -1.93%; (PRVABC59, Concentration 198.0 uM, Number of replicates 2.0, Standard deviation 2.4886877009271497 %) -0.977%.

Take `CC(C)(CO)NC(=O)c1cc(Cl)cc(NC(=O)[C@@H](N)c2cccc(Cl)c2)c1`: the inhibition by setting is: (PRVABC59, Concentration 49.5 uM, Number of replicates 2.0, Standard deviation 0.37125456120566713 %) 3.24%; (PRVABC59, Concentration 99.01 uM, Number of replicates 2.0, Standard deviation 0.3445899360267649 %) 7.58%; (PRVABC59, Concentration 198.0 uM, Number of replicates 2.0, Standard deviation 0.35074337590935545 %) 13.2%.

On to `O=Cc1ccc(N2CCC(C(=O)NCc3ccc4c(c3)OCO4)CC2)cc1`, for which the inhibition under setting [2] was found to be 7.09%.

Take `O=C(c1cc(Cl)ccc1NS(=O)(=O)c1ccc(Oc2ccccc2Cl)cc1)N(Cc1ccccc1)Cc1ccc(Br)cc1`: the inhibition under setting [1] was 41.9%.

For `O=C(NCc1ccc2c(c1)OCO2)c1cc(Cl)ccc1NS(=O)(=O)c1ccc(Oc2ccccc2Cl)cc1`, under setting [1], the inhibition came to 29.7%.

For the compound `O=Cc1ccc(N2CCC(C(=O)NC[C@H](O)c3ccc(O)cc3)CC2)cc1`, the inhibition under setting [3] is 14.8%.

`CNc1ccc(-c2ccccc2C(=O)Nc2cnn(C)c2)cn1`: the inhibition (PRVABC59, Concentration 49.5 uM, Number of replicates 2.0, Standard deviation 1.5073145177408105 %) was -1.84%; the inhibition (PRVABC59, Concentration 99.01 uM, Number of replicates 2.0, Standard deviation 1.7123668593538302 %) turned out to be 0.301%; the inhibition (PRVABC59, Concentration 198.0 uM, Number of replicates 2.0, Standard deviation 2.174633915289801 %) turned out to be 0.018%.

On to `NC(=O)c1cccc(NC(=O)[C@@H](NC(=O)c2ccc(Oc3ccc(C(F)(F)F)cc3)cc2)c2ccc(OCc3ccccc3)cc2)c1`, for which the inhibition was determined as 6.3% (PRVABC59, Concentration 49.5 uM, Number of replicates 2.0, Standard deviation 0.46044521626223894 %); 14.7% (PRVABC59, Concentration 99.01 uM, Number of replicates 2.0, Standard deviation 0.010097036204057861 %); 30.3% (PRVABC59, Concentration 198.0 uM, Number of replicates 2.0, Standard deviation 0.34129506399757725 %).
